Experimental data reported in US12508261B2, “Methods of treating depression with vortioxetine” (Rundle Research LLC, priority 2017, dated 2025).
Several values for one entry are separate records, joined by “and”; a condition that tells them apart may be missing. Equal entries are not always repeated. The source gives many values for each of these; only a part stands here.

Legend:
[1] = all subjects incl. intermediate and poor CYP2D6 metabolizers; Areberg et al.; cited from earlier work
[2] = Clinical pharmacokinetic study (RUN-001): vortioxetine 5 mg once daily for 29 days, then 28 days washout, obese vs normal-weight subjects; type: in vivo, human; settings: for T1/2: individual subjects, EM
Method: To test if the obese patients would require different washout guidelines for preventing serotonin syndrome, 16 obese subjects (BMI≥35) and 13 normal subjects (BMI<25) completed a clinical trial where they were administered daily with low doses (5 mg/day) of vortioxetine for 29 days in a controlled study. All subjects were subsequently tracked for 28 days after discontinuing vortioxetine on day 29. Blood samples were collected and processed according to standard techniques.
The normal-weight control group consisted of healthy male and female volunteers aged 18 to 45 years. Their body mass index (BMI) values fell in the range of […]. […] Normal weight and obese subjects were matched as closely as possible for gender and age.
CYP2D6 genotype status was determined from whole blood samples drawn from each subject. Known alleles of CYP2D6 were tested for, as well as the presence of gene duplications (LabCorp, Inc.). CYP2D6 metabolizer status was categorized as ultra-rapid, extensive, intermediate, or poor. Ultra-rapid and poor metabolizers were not included in the study.
All subjects received vortioxetine, 5 mg once daily in the morning, for 29 days. The first dose was on Day 1, and the last dose was on Day 29. Blood sampling continued for another 28 days after the last dose, through Day 57.
Subjects spent 12 hours in the study unit on Day 1 (first dose of vortioxetine) and Day 29 (last dose of vortioxetine). On those two study days, venous blood samples (7 mL each) were drawn prior to the dose of vortioxetine, and at 1, 2, 4, 6, 8, 10, and 12 hours after dosage.
During the 29-day period of daily vortioxetine administration, subjects returned to the study unit in the morning of the following study days: 2, 3, 5, 8, 10, 12, 15, 17, 19, 22, 24, 26, and 29. At each visit, a single venous blood sample (7 mL) was drawn before the daily dose of vortioxetine. Subjects underwent a brief interview to assess subjective effects and possible adverse events. Subjects were then discharged until the next scheduled visit. They were provided with vortioxetine doses sufficient for daily morning administration until the next visit. No more than 2 consecutive doses of vortioxetine were taken on an outpatient basis.
On Day 29 (the final dose of vortioxetine), subjects spent 12 hours in the study unit as described above. They returned to the study unit for a single blood sample on the mornings of the following Days: 30, 31, 33, 36, 38, 40, 43, 45, 47, 50, 52, 54, and 57.
Plasma concentrations of vortioxetine were determined by liquid chromatography—mass spectrometry using a Shimadzu HPLC system coupled to a Sciex API-4000 mass spectrometer.
The internal standard (vortioxetine-d8) was added to calibration standards, quality control samples, and unknown study samples. All samples were extracted with methyl tert-butyl ether. The organic phase was separated and evaporated to dryness; the reconstituted extract was injected into the HPLC system. The HPLC column was a Unison UK-C18, 50 mm×2 mm, 3 micron particle size. The mobile phase consisted of an organic component (0.1% formic acid in acetonitrile) and an aqueous component (0.1% formic acid and 2 mM ammonium acetate in water). This was delivered in gradient mode at a net flow rate of 0.4 mL/min, with the organic fraction varying from 40% to 96%. m/z monitored were: 299.1/150.1 for vortioxetine, and 307.1/153 for vortioxetine-d8. The limit of quantitation was 0.1 ng/mL. […] All samples from a given study subject were extracted and analyzed at the same time using the same calibration standards.
Based on the clinical trials discussed above, several equations were derived which allow an individual to calculate the washout period (i.e., the time between stopping vortioxetine and initiating treatment with an MAOI). Data points to consisted of pre-dose plasma vortioxetine concentration (C) on each study day (t), both during (Days 1-29) and after (Days 30-57) the period of vortioxetine administration. […]

Cc1ccc(Sc2ccccc2N2CCNCC2)c(C)c1 [vortioxetine]
mean elimination half-life [1]: 65.8 h | Half-Life Max ([2]; Normal cohort): 79.8 h | Half-Life Min ([2]; Normal cohort): 30.3 h | MAOI Delay at 7.5 × Half-Life, Average ([2]; Normal cohort): 2.4 Weeks | MAOI Delay at 7.5 × Half-Life, Max ([2]; Normal cohort): 3.6 Weeks | MAOI Delay at 7.5 × Half-Life, Min ([2]; Normal cohort): 1.4 Weeks | Accumulation half-life ([2]; Normal-weight subjects, 5 mg/day, mean ± SD): 55.4 ± 18.7 h | Half-Life Max ([2]; Obese cohort): 171.0 h | Half-Life Min ([2]; Obese cohort): 53.9 h | MAOI Delay at 7.5 × Half-Life, Average ([2]; Obese cohort): 3.5 Weeks | MAOI Delay at 7.5 × Half-Life, Max ([2]; Obese cohort): 7.6 Weeks | MAOI Delay at 7.5 × Half-Life, Min ([2]; Obese cohort): 2.4 Weeks | T1/2 ([2]; Normal cohort (BMI<25)): 40.9 h and 42.1 h and 48.6 h and 64.6 h and 48.3 h and 53.5 h and 30.3 h and 51.2 h and 79.8 h and 63.9 h and 52.8 h and 50.7 h | T1/2 ([2]; Obese cohort (BMI>=35)): 129 h and 67.8 h and 57.8 h and 93.9 h and 68.5 h and 53.9 h and 76.7 h and 74.0 h and 66.9 h and 71.0 h and 84.6 h and 56.3 h and 55.9 h and 54.5 h and 83.7 h | washout interval before MAOI (mean obese half-life / mean control half-life × 21 days) ([2]; obese individuals, BMI exceeding 35 kg/m^2): at least 31 days
